# From PubChem BioAssay (NCATS)
# Several values for one entry are separate records, joined by “and”; a condition that tells them apart may be missing. Equal values may be shown once. Inconclusive means that the source gave no clear call. Such entries were picked first, then a sample of the others. A potency beside an inconclusive call is a rough fit, not a confirmed value. Activity calls are given as the source filed them. Unless noted, the call rests on the fitted dose curve; in most records, active means well fitted curve in the direction sought with a large enough effect; inconclusive means small, poorly fitted or top-dose-only effect, or another doubt; inactive means no such curve, though single readings can be large; an effect the other way counts as inactive or inconclusive.
# How the values were obtained:
# [1] = molecular target: DNA polymerase eta (Homo sapiens) (UniProt Q9Y253); test: qHTS for Inhibitors of Polymerase Eta: Confirmatory Assay for Cherry-picked Compounds (AID 720502); details: Pol eta primer extension, TAMRA/BHQ fluorescence, 10 min
# In short: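 10 nM Pol eta + cpd, 15 min RT; start w/ 50 nM final primer/TAMRA-reporter/BHQ-2-template substrate; kinetic read 0 and 10 min, ex 525/em 598 nm. Buffer-only wells = negative control.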
# [2] = qHTS Assay for Identification of Small Molecule Agonists for Hypoxia Response Element Signaling Pathway (AID 914; active means well fitted activation curve with a large enough effect in the signal ratio, with a control signal flat, not every such curve was filed as active; inconclusive means small, poorly fitted or top-dose-only effect, or effect the other way, or a change in a side signal; the % refers to the signal ratio; on activation: top concentration of the series differs between compounds; % of control where 0% means no effect); details: ME-180 (cervical carcinoma) HRE-bla reporter, beta-lactamase ratio, CoCl2, 17 h; activation: hits give high values
# In short: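 HRE-bla ME-180 cells with beta-lactamase reporter under hypoxia response element, compounds with EC50 CoCl2 for 17 hours at 37 C. CCF4 substrate, 460nm/530nm emission ratio gave %Activity; AC50 from titration series.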
# [3] = molecular target: Cytochrome P450 2C9 (Homo sapiens) (UniProt P11712); test: qHTS Assay for Inhibitors and Substrates of Cytochrome P450 2C9 (AID 883); details: recombinant CYP2C9, luciferin-H luminescence, 60 min; activity change, negative = inhibition: at 11.4 µM (top of the series) unless noted; further: nearly all actives have a fitted effect of over 60% in size; on activity change, negative = inhibition: on the % scale 0 is the no-effect control and ±100 the full control effect
# In short: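 Human CYP2C9 (10nM) with Luciferin-H at 100uM (its KM) in 25mM KPO4; compound preincubated 10 min at 37C, then NADPH regeneration for 60 min at 37C. Luciferin read by luminescence after detection reagent; normalized to 57uM sulphaphenazole as full inhibition.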
# [4] = molecular target: Cytochrome P450 2D6 (Homo sapiens) (UniProt P10635); test: qHTS Assay for Inhibitors and Substrates of Cytochrome P450 2D6 (AID 891); details: recombinant CYP2D6, luciferin-ME EGE luminescence; series mostly up to 11.4 µM;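 further: luciferin methyl ether substrate demethylated by CYP2D6 with NADPH regeneration; nearly all actives have a fitted effect of over 60% in size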; on activity change, negative = inhibition: top concentration of the series differs between compounds; on the % scale 0 is the no-effect control and ±100 the full control effect
# In short: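 Human CYP2D6 (5 nM) with 30 uM Luciferin-ME EGE (at Km) in 100 mM KPO4, compound preincubated 10 min, then NADPH regeneration system for 60 min at room temperature. Luciferin read by luminescence; normalized to 1.43 uM quinidine.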
# [5] = molecular target: Cytochrome P450 3A4 (Homo sapiens) (UniProt P08684); test: qHTS Assay for Inhibitors and Substrates of Cytochrome P450 3A4 (AID 884); details: recombinant CYP3A4, Luciferin-PPXE luminescence; activity change, negative = inhibition: at 57.1 µM (top of the series) unless noted; further: nearly all actives have a fitted effect of over 50% in size; on activity change, negative = inhibition: on the % scale 0 is the no-effect control and ±100 the full control effect
# In short: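 20 nM human CYP3A4 with 25 uM Luciferin-PPXE (at KM) in 200 mM KPO4, preincubated 10 min with compound; NADPH regeneration started a 60 min RT reaction. Luciferin detected by luminescence, normalized to 57 uM ketoconazole as full inhibition.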
# [6] = molecular target: Cytochrome P450 3A4 (Homo sapiens) (UniProt P08684); test: qHTS Assay for Activators of Cytochrome P450 3A4 (AID 885); details: recombinant CYP3A4, Luciferin-PPXE luminescence, 60 min; series mostly up to 57.1 µM; further: nearly all actives have a fitted effect of over 65% in size
# In short: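 20nM CYP3A4 + 25uM Luciferin-PPXE (=KM), 200mM KPO4; cpd 10 min RT; NADPH regen, 60 min RT; stop w/ detection buffer, 20 min; luminescence. Normalized to 57 uM ketoconazole.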
# [7] = molecular target: Cytochrome P450 2C19 (Homo sapiens) (UniProt P33261); test: qHTS Assay for Inhibitors and Substrates of Cytochrome P450 2C19 (AID 899); details: recombinant CYP2C19, luciferin-H EGE luminescence; activity, negative = inhibition: at 11.4 µM (top of the series); further: nearly all actives have a fitted effect of over 60% in size; on activity, negative = inhibition: top concentration of the series differs between compounds; on the % scale 0 is the no-effect control and ±100 the full control effect
# In short: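 5 nM human CYP2C19 with 10uM Luciferin-H EGE (at KM) in 50mM KPO4, compound preincubated 10 min at 37C, then NADPH regeneration for 60 min at 37C. Luciferin read by luminescence after detection reagent; normalized to 57uM ketoconazole as full inhibition.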
# Potency means the concentration at half of the fitted maximal effect; tags describe the fitted curve by direction and shape or compound fluorescence and quenching.
# Chain of UniProt P08684 (P08684 whole entry, looked up): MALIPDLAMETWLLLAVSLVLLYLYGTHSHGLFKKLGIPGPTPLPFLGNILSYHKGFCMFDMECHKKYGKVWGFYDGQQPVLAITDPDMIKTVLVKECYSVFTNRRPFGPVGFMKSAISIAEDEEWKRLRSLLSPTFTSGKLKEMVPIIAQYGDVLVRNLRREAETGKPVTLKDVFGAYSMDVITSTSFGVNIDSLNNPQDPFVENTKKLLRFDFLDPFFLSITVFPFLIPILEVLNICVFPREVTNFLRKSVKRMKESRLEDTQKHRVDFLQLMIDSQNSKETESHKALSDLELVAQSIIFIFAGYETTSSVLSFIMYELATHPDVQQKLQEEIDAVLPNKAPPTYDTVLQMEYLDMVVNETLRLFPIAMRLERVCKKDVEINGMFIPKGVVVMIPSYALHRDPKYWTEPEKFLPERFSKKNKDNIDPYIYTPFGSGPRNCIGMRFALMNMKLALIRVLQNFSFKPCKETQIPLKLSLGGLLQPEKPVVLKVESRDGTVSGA
# Chain of UniProt P10635 (P10635 whole entry, looked up): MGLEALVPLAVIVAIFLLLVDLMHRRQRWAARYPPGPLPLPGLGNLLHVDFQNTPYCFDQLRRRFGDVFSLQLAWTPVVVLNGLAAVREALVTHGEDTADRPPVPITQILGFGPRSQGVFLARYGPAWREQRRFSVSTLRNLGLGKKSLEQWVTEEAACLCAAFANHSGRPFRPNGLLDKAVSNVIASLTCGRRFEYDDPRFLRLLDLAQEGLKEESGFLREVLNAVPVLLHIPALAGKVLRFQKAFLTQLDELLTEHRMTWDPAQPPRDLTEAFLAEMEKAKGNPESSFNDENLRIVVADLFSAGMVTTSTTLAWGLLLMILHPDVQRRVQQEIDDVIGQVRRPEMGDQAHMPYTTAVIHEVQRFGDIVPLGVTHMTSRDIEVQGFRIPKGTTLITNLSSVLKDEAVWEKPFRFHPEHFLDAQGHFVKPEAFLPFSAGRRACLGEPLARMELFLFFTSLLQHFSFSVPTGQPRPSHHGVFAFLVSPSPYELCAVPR
# Chain of UniProt P33261 (P33261 whole entry, looked up): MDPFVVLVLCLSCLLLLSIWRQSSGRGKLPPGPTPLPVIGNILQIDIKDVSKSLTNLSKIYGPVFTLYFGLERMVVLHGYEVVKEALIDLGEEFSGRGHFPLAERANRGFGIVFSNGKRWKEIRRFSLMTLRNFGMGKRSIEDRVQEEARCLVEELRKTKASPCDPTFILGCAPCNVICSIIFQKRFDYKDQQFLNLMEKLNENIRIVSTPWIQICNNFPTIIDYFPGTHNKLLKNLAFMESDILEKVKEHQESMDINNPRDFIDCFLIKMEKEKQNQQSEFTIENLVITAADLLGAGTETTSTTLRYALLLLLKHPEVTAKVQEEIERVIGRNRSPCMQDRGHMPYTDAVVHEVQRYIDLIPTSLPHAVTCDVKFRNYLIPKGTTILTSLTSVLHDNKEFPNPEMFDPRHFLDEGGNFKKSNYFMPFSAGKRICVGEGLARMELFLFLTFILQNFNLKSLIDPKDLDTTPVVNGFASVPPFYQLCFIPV
# Chain of UniProt Q9Y253 (Q9Y253 whole entry, looked up): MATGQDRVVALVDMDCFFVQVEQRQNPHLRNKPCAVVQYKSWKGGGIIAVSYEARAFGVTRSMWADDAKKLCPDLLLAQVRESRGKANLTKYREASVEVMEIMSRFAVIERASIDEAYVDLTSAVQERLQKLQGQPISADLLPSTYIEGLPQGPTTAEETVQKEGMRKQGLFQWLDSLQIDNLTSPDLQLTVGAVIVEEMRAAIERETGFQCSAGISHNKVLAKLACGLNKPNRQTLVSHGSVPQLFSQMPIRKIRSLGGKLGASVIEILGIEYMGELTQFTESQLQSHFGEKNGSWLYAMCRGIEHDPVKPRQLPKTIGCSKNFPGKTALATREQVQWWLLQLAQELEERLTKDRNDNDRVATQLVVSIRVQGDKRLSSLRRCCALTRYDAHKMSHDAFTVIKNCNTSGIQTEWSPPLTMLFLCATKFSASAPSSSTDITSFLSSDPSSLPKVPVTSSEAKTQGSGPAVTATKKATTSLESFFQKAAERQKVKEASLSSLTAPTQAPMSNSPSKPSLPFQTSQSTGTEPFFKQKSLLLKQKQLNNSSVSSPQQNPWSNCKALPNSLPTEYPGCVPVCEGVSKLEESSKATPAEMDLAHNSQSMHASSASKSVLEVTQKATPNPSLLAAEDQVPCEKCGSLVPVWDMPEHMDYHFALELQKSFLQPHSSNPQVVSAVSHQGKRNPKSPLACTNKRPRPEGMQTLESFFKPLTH
# Chain of UniProt P11712 (P11712 whole entry, looked up): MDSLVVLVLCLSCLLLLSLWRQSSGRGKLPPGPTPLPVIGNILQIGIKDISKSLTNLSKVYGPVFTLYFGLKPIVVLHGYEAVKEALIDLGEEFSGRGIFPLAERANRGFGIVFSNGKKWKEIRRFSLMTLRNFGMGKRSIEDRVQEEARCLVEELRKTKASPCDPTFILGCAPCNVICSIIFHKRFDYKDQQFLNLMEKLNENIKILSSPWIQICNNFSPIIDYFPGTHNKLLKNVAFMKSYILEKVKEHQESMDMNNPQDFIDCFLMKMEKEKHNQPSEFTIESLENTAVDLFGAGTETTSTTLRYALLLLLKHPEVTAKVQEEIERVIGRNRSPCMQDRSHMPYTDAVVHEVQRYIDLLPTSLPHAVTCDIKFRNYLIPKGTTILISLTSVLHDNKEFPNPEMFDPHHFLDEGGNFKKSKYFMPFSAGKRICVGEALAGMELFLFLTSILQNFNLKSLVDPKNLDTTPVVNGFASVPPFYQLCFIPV
smiles,measurement,setting,value
CC(=O)COC(=O)C1CCN(S(=O)(=O)c2cc([N+](=O)[O-])ccc2Cl)CC1,Potency,[1],"inconclusive: 95.3 µM [inhibitor, single point]"
C[C@@H](C(=O)Nc1nc(-c2ccccn2)cs1)N1C(=O)C2CCCCC2C1=O (some centres undefined),Potency,[1],"inconclusive: 84.9 µM [inhibitor, single point]"
O=Cc1cn(CCC(=O)O)nc1-c1cc2ccccc2o1,Potency,[1],"inconclusive: 84.9 µM [inhibitor, single point]"
COc1ccc(C(=O)OCc2cc(=O)n3nc(-c4cccs4)sc3n2)cc1,Potency,[1],"inconclusive: 95.3 µM [inhibitor, single point]"
Cc1cccc(OCC(=O)N/N=C/C=C/c2ccco2)c1,Potency,[1],"inconclusive: 84.9 µM [inhibitor, single point]"
COc1ccc(NC(=O)CN2C(=O)NC3(CCCC3)C2=O)cc1OC,Potency,[1],"inconclusive: 3.79 µM [inhibitor, full curve, poor fit]"
COc1cc(/C=C2\C(C)=C(C#N)c3nc(N)c(C#N)c(C)c32)ccc1OCC(=O)O,Potency,[1],active: 37.9 µM
CS(=O)(=O)N1Cc2ccccc2CC1C(=O)OCC(=O)NCc1ccccc1 (centres undefined),Potency,[1],"inconclusive: 95.3 µM [inhibitor, single point]"
O=C(CSc1nc2ccccc2c(=O)n1Cc1ccco1)NCc1ccco1,Potency,[1],"inconclusive: 95.3 µM [inhibitor, single point]"
COc1ccc(N2Cc3cccc(C(=O)Nc4cc(C)cc(C)c4)c3C2=O)cc1,Potency,[1],"inconclusive: 75.7 µM [inhibitor, single point]"
Cc1ccc(OCCC(=O)O)cc1,Potency,[1],"inconclusive: 84.9 µM [inhibitor, single point]"
COc1ccc2occ(CC(=O)Nc3ccc(S(=O)(=O)Nc4nccc(C)n4)cc3)c2c1,Potency,[1],"inconclusive: 95.3 µM [inhibitor, single point]"
C=CCn1c(O)c(N=NC(=O)CNC(=O)/C=C/c2ccco2)c2ccccc21,Potency,[1],active: 75.7 µM
O=C1c2cccc3c([N+](=O)[O-])ccc(c23)C(=O)N1Cc1cccnc1,Potency,[1],"inconclusive: 75.7 µM [inhibitor, single point]"
CCc1ccc(OCC(=O)N/N=C\c2ccco2)c([N+](=O)[O-])c1,Potency,[1],"inconclusive: 95.3 µM [inhibitor, partial curve, poor fit]"
Cc1cc(C)n(-c2nc(Nc3ccccc3)nc(-n3nc(C)cc3C)n2)n1,Potency,[1],"inconclusive: 75.7 µM [inhibitor, partial curve]"
C=CCOc1cccc(C2C(C(=O)c3ccco3)=C(O)C(=O)N2Cc2ccco2)c1 (centres undefined),Potency,[1],"inconclusive: 60.1 µM [inhibitor, partial curve]"
NC(=O)c1ccsc1NC(=O)c1ccc([N+](=O)[O-])o1,Potency,[1],"inconclusive: 95.3 µM [inhibitor, single point]"
O=C(CSc1ccncc1)Nc1ccc(S(=O)(=O)Nc2nccs2)cc1,Potency,[1],active: 47.8 µM
Cc1cc(=O)oc2cc(OCC(=O)N3c4ccccc4NC(=O)C3(C)C)ccc12,Potency,[1],"inconclusive: 84.9 µM [inhibitor, single point]"
COc1ccc(OCC(=O)N/N=C/c2cccn2-c2cccc(C(=O)O)c2)cc1,Potency,[1],active: 30.1 µM
N#Cc1c(SCC(=O)Nc2nc3ccccc3s2)sc2c(O)cc(=O)[nH]c12,Potency,[1],active: 30.1 µM
O=C(N/N=C/c1cc(Br)c(O)c(Br)c1O)c1ccc2c(c1)OCCO2,Potency,[1],"inconclusive: 84.9 µM [inhibitor, single point]"
O=C(O)c1ccc(COCC(F)(F)C(F)F)o1,Potency,[1],"inconclusive: 95.3 µM [inhibitor, single point]"
O[C@H](c1cc(C(F)(F)F)nc2c(C(F)(F)F)cccc12)[C@H]1CCCCN1,activation,[2],inconclusive: 62.9%
CCCCCCCC#Cc1ccccc1/C=N/S(=O)C(C)(C)C (centres undefined),Potency,[3],inactive
same,Potency,[4],inactive
COc1ccc(OC2C=CC(C#Cc3ccc(Br)cc3)OC2CO)c(C(C)(C)C)c1 (centres undefined),Potency,[3],active: 3.16 µM
same,Potency,[4],inactive
C=CC[C@@H]1C=C[C@H](Oc2ccc(C)cc2)[C@H](COC(=O)NCc2cccc3ccccc23)O1,Potency,[3],"inconclusive: 3.98 µM [inhibitor, single point]"
same,Potency,[4],"inconclusive: 7.94 µM [inhibitor, single point]"
C/C(CCN1CCc2nc(-c3ccccc3)c(-c3ccccc3)cc2C1)=N\O[C@@H](C)c1cn([C@H](CO)Cc2ccccc2)nn1,Potency,[3],"inconclusive: 3.16 µM [inhibitor, single point]"
same,Potency,[5],"inconclusive: 3.98 µM [inhibitor, partial curve] and inconclusive: 3.16 µM [inhibitor, single point]"
same,activation,[2],inactive: -1.74% and inactive: -5.69%
O=c1cc(-c2ccccc2O)oc2cc(O)cc(O)c12,Potency,[3],active: 5.01 µM
same,Potency,[6],inactive
COc1ccc(OC2C=CC(C#Cc3ccccc3)OC2CO)cc1 (centres undefined),Potency,[3],inactive
same,"activity change, positive = activation",[6],inactive: -79.3% [at 11.4 µM]
COc1ccc2c(Cl)cc(NC(=S)Nc3ccccc3)nc2c1,Potency,[3],"inconclusive: 3.98 µM [inhibitor, single point]"
same,Potency,[6],"inconclusive: 3.16 µM [activator, single point]"
same,Potency,[7],"inconclusive: 3.16 µM [inhibitor, partial curve, poor fit]"
O=C(CC(=O)c1ccncc1)c1ccccc1,Potency,[3],"inconclusive: 2 µM [inhibitor, partial curve]"
same,Potency,[4],"inconclusive: 1.58 µM [inhibitor, partial curve]"
Cc1cc2c(cc1C)NC1=C(N2)O[C@H](c2c[nH]c3ccc(COc4ccccc4)cc23)C1=O,Potency,[3],"inconclusive: 7.94 µM [inhibitor, single point]"
same,Potency,[5],active: 3.98 µM
same,activation,[2],inconclusive: -16.7%
Nc1nc(SCc2ccccc2)c2ncn(Cc3ccccc3)c2n1,Potency,[3],"inconclusive: 3.16 µM [inhibitor, single point]"
same,Potency,[5],"inconclusive: 3.98 µM [inhibitor, partial curve]"
same,Potency,[2],"inconclusive: 2.51 µM [inhibitor, single point]"
C[C@@]12CCC3c4ccc(OC5C=CC(c6ccccc6)OC5CO)cc4CCC3C1CCC2=O (some centres undefined),Potency,[3],inactive
same,Potency,[6],active: 3.16 µM
COC(=O)C/C=C\[C@@H](C)[C@@H](/C=N\OC[C@@H]1O[C@H](c2ccccc2)C=C[C@@H]1Oc1ccc(OC)cc1)OC,Potency,[3],"inconclusive: 1.58 µM [inhibitor, single point]"
same,Potency,[5],active: 3.16 µM
same,activation,[2],inconclusive: -9.01%
NCCC[C@@H](CC(=O)N[C@@H]1CCNC[C@H]1C(=O)N[C@H](CC(=O)N[C@@H](CCC(=O)O)CC(=O)O)Cc1ccccc1)NC(=O)C[C@H](Cc1ccccc1)NC(=O)[C@@H]1CNCC[C@H]1N,Potency,[3],inactive
same,Potency,[4],inactive
COC(=O)C1=C(C)N(Cc2ccccc2)C2=C3C(=O)CCCC3[C@@](O)(C(=O)OC)C(=O)N2C1c1ccccc1 (some centres undefined),Potency,[3],inactive
same,"activity change, negative = inhibition",[5],inactive: -20% [at 11.4 µM]
same,Potency,[7],inactive
Oc1c(Cl)cc(CN(Cc2cc(Cl)c(O)c(Cl)c2)C2CCCCC2)cc1Cl,Potency,[3],"inconclusive: 3.98 µM [inhibitor, single point]"
same,Potency,[4],"inconclusive: 5.01 µM [inhibitor, single point]"
COC(=O)C1=C(C)N(Cc2ccccc2)C2=C(C(C)=O)C(c3ccccc3)[C@@](O)(C(=O)OC)C(=O)N2C1c1ccccc1 (some centres undefined),Potency,[3],inactive
same,Potency,[4],inactive
N#C/C(=C\NC(=S)c1ccncc1)c1nc2ccccc2s1,Potency,[3],"inconclusive: 6.31 µM [inhibitor, single point]"
same,Potency,[5],"inconclusive: 2.51 µM [inhibitor, partial curve]"
O=[N+]([O-])c1cc(Cc2cc([N+](=O)[O-])c3cccnc3c2O)c(O)c2ncccc12,Potency,[3],"inconclusive: 5.01 µM [inhibitor, single point]"
same,Potency,[4],"inconclusive: 3.98 µM [inhibitor, partial curve]"
CCc1cc2c(nc1CC)CCN(CC/C(C)=N/OC[C@H]1O[C@H](c3ccccc3)C=C[C@@H]1Oc1ccc(OC)cc1)C2,Potency,[3],"inconclusive: 6.31 µM [inhibitor, single point]"
same,Potency,[5],"inconclusive: 6.31 µM [inhibitor, single point]"
same,Potency,[4],"inconclusive: 6.31 µM [inhibitor, partial curve]"
C=C(CC1([C@@H](NP(=O)(c2ccccc2)c2ccccc2)[C@H]2C[C@@H]2CCN(C(=O)OCC)S(=O)(=O)c2ccc(C)cc2)CC1)c1ccccc1,Potency,[3],"inconclusive: 5.01 µM [inhibitor, full curve]"
same,Potency,[5],active: 1.58 µM
same,Potency,[7],"inconclusive: 1.26 µM [inhibitor, full curve]"
Cc1cc(C(=O)CSC(=S)SC(C)(C)C)ccc1Cl,Potency,[3],"inconclusive: 5.01 µM [inhibitor, single point]"
same,Potency,[5],"inconclusive: 3.16 µM [inhibitor, partial curve]"
CN(Cc1cc(C(C)(C)C)cc(Br)c1O)Cc1cc(C(C)(C)C)cc(Br)c1O,Potency,[3],"inconclusive: 3.98 µM [inhibitor, single point]"
same,Potency,[4],"inconclusive: 2.51 µM [inhibitor, partial curve]"
NCCSCc1ccccc1Cl,Potency,[3],"inconclusive: 3.98 µM [inhibitor, single point]"
same,Potency,[5],"inconclusive: 3.16 µM [inhibitor, partial curve]"
same,Potency,[7],"inconclusive: 3.16 µM [inhibitor, partial curve]"
COC(=O)[C@@H]1CC[C@H](C)[C@@H](c2ccc(C)cc2)N1C(=O)c1ccc(/C=N\O[C@@H](C)CN2CCCc3nc(C)c(C)cc32)cc1,Potency,[3],"inconclusive: 3.16 µM [inhibitor, single point]"
same,Potency,[5],"inconclusive: 3.98 µM [inhibitor, single point]"
same,Potency,[4],"inconclusive: 6.31 µM [inhibitor, single point]"
same,activation,[2],inconclusive: 32.5%
